# Results reported in publication PMC5892938.
# The list shows a part of the results. At the low end of the ranking the order means little.
# Target: GST-SBP-SLBP (stem-loop binding protein) (UniProt Q14493)
# Experiment: targeted RNA Bind-n-Seq;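 note: DESeq read counts versus GST-SBP nonspecific binding control pulldown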
# Conditions: RBNS binding buffer: 25 mM Tris pH 7.5, 150 mM KCl, 3 mM MgCl2, 0.1% Tween, 0.5 mg/mL BSA, 1 mM DTT; 27 nM protein, 750 pM RNA pool; temperature not stated; high values mean tight binding
row,Sequence,binding signal (log2 fold change)
1,GGUCACGUCUCAAUCAACUCUAUCGAGGGGGGGAAAACCCCUUUACCCUCACAUUCAACAGCUCGCAGUCAAG,-0.0793
2,GGUCACGUCUCAAUCAACUCUUUCCCAGGAGUUUACUCCUGUAAUUUCAACAGCUCGCAGUCAAG,0.107
3,GGUCACGUCUCAAUCAACUCUUCUUCCAGGGAAACCCCUGGUUAAUUCAACAGCUCGCAGUCAAG,0.132
4,GGUCACGUCUCAAUCAACUCUUCGCCCAGGGAAAUCCCUGGUAUAUUCAACAGCUCGCAGUCAAG,0.0289
5,GGUCACGUCUCAAUCAACUCAUCUUCAGGAGUUUACUCCUGUUUAUUCAACAGCUCGCAGUCAAG,-0.0232
6,GGUCACGUCUCAAUCAACUCAUCUCCAGGAGUUUCCUCCUGCAAUUUCAACAGCUCGCAGUCAAG,-0.0879
7,GGUCACGUCUCAAUCAACUCUUUUCCCAGGGAAAACCCUGGUUUAUUCAACAGCUCGCAGUCAAG,0.179
8,GGUCACGUCUCAAUCAACUCAUUUUCCAGGGAAAACCCUGGUUUUCUCAACAGCUCGCAGUCAAG,-0.0433
9,GGUCACGUCUCAAUCAACUCAUCUUCCAGGGAAAGCCCUGGUAUAUUCAACAGCUCGCAGUCAAG,0.154
10,GGUCACGUCUCAAUCAACUCAUUCGAGGGGGGGAAAACCCCUUUGCCCUCAUAAUCAACAGCUCGCAGUCAAG,-0.455
11,GGUCACGUCUCAAUCAACUCAUCGCCCAGGGAAAACCCUGGUUUUUUCAACAGCUCGCAGUCAAG,0.111
12,GGUCACGUCUCAAUCAACUCUAUCUCAGGAGUUUACUCCUGCAUAUUCAACAGCUCGCAGUCAAG,0.0675
13,GGUCACGUCUCAAUCAACUCAAGUCCCAGGGAAAGCCCUGGCAAAUUCAACAGCUCGCAGUCAAG,-0.0212
14,GGUCACGUCUCAAUCAACUCAUCGUCAGGAGUUUACUCCUGUUAAUUCAACAGCUCGCAGUCAAG,-0.213
15,GGUCACGUCUCAAUCAACUCUUUUCCCAGGGAAACCCCUGGUUAAUUCAACAGCUCGCAGUCAAG,-0.147
16,GGUCACGUCUCAAUCAACUCUAUCCCCAGGGAAAGCCCUGGUAUUCUCAACAGCUCGCAGUCAAG,-0.126
17,GGUCACGUCUCAAUCAACUCAACUUCAGGAGUUUGCUCCUGCAAUUUCAACAGCUCGCAGUCAAG,-0.177
18,GGUCACGUCUCAAUCAACUCUAGUCCCAGGGAAAACCCUGGCAAUUUCAACAGCUCGCAGUCAAG,0.266
19,GGUCACGUCUCAAUCAACUCAGUUUCAGGAGUUUACUCCUGCAUUCUCAACAGCUCGCAGUCAAG,-0.139

row,Sequence,binding signal (log2 fold change)
1,GGUCACGUCUCAAUCAACUCUUCCUCCAGGGAAAACCCUGGCAUAUUCAACAGCUCGCAGUCAAG,-0.0616
2,GGUCACGUCUCAAUCAACUCUAUCCCCAGGGAAAACCCUGGCAAACUCAACAGCUCGCAGUCAAG,-0.14
3,GGUCACGUCUCAAUCAACUCCCUAGAGGGGGGGAAAACCCCUUUGCCCUCGAAUUCAACAGCUCGCAGUCAAG,0.182
4,GGUCACGUCUCAAUCAACUCUAUUCCAGGAGUUUACUCCUGCUUACUCAACAGCUCGCAGUCAAG,-0.0547
5,GGUCACGUCUCAAUCAACUCCCAAAGGUUUUUCUUAGAACCACCCAUCAACAGCUCGCAGUCAAG,0.299
6,GGUCACGUCUCAAUCAACUCAGUCUCCAGGGAAAGCCCUGGCUAUCUCAACAGCUCGCAGUCAAG,-0.286
7,GGUCACGUCUCAAUCAACUCAUUUGCAGGAGUUUACUCCUGGUAUUUCAACAGCUCGCAGUCAAG,0.042
8,GGUCACGUCUCAAUCAACUCUUUUCCCAGGGAAAGCCCUGGCAAUGUCAACAGCUCGCAGUCAAG,0.2
9,GGUCACGUCUCAAUCAACUCCUCGGAGGGGGGGAAAACCCCUUUACCCUCACAAUCAACAGCUCGCAGUCAAG,-0.433
10,GGUCACGUCUCAAUCAACUCUACAGAGGGGGGGAAAACCCCUUUUCCCUCAACAUCAACAGCUCGCAGUCAAG,0.191
11,GGUCACGUCUCAAUCAACUCUAGUCCAGGAGUUUUCUCCUGUUAUCUCAACAGCUCGCAGUCAAG,-0.224
12,GGUCACGUCUCAAUCAACUCAACUCCCAGGGAAACCCCUGGUAAUUUCAACAGCUCGCAGUCAAG,-0.0604
13,GGUCACGUCUCAAUCAACUCUCCCGAGGGGGGGAAAACCCCUUUACCCUCAUCCUCAACAGCUCGCAGUCAAG,-0.469
14,GGUCACGUCUCAAUCAACUCUUUCUCCAGGGAAAACCCUGGCUAUUUCAACAGCUCGCAGUCAAG,0.0586
15,GGUCACGUCUCAAUCAACUCGUUUUCAGGAGUUUUCUCCUGUUAUUUCAACAGCUCGCAGUCAAG,0.0599
16,GGUCACGUCUCAAUCAACUCAUUUUCCAGGGAAAGCCCUGGCUUUUUCAACAGCUCGCAGUCAAG,-0.172
17,GGUCACGUCUCAAUCAACUCAUUCGAGGGGGGGAAAACCCCUUUGCCCUCAACAUCAACAGCUCGCAGUCAAG,-0.295
18,GGUCACGUCUCAAUCAACUCAUUCGCAGGAGUUUACUCCUGGUAUUUCAACAGCUCGCAGUCAAG,-0.142
